Among the data in the RNAGym collection of RNA variant scans (doi:10.7554/elife.90254) are self-cleavage values, retold here.

First the molecules themselves.
B1: LINE1-mini (parent)
chain: GGCAGAGCUCAACACAGCGUGGCAAAGUGGCUGUGGCUAGACUGCC

The source gives no read counts; variants with many changes may rest on few reads.

The variants in this series derive from B1. In words: self-cleavage, relative activity (ratio to wild type); higher = more cleavage; in vitro, sequencing; the parent is a self-cleaving ribozyme.
On to GGCAGAGAUCAAAAUAGCGCGGCAAAGUGGCUGUGGCUAGACUGCC [C8A C13A C15U U20C], for which the self-cleavage stood at 0.33.

Regarding GGCAGAGAUCAACACAGCGUGGCCAAGUUGCUGUGGCUAGAGUGCC [C8A A24C G29U C42G], the self-cleavage was 0.07. Under GGCAGAGAUCAACAUAUCCUGGCCAAGUGGCUGUGGCUAAACUCCC [C8A C15U G17U G19C A24C G40A G44C] stands 0.07; under GGCAGAGAUAAACACAGCGUGGCAAAGUGGCUGUGGCUAAACUGCC [C8A C10A G40A], 0.02.

GGCAGAGAUAAACACAGCGUGGCAAAGUGGCUGUGGCUAUACUGCC [C8A C10A G40U]: the self-cleavage worked out at 0.18.

On to GGCAGAGAUCAACACAGCGUGGCAAUGUGGCGGUGGCUAGACUGCC [C8A A26U U32G], for which the self-cleavage came out at 0.18. On to GGCAGAGAUUAACACAGCGUGGCAAAGUGGCUAUGGCCAGACUGCC [C8A C10U G33A U38C], for which the self-cleavage came to 0.04.

In the case of GGCAGAGAUCAACAGAGCGUGGCAAAGUGGCCUGGCCUAGACAGCC [C8A C15G U32C G33U U34G G36C U43A], the self-cleavage turned out to be 0.04. The value for GGCAGAGAUCAACACAGUGAUGCAAAGUGGGUGUGGCUAGACUGUC [C8A C18U U20A G21U C31G C45U] was 0.11. Under GGCAGAGAUCAACAAAGCGUGGCAAAGUGGGUGUGGCUAGACUGCC [C8A C15A C31G] stands 0.18; under GGCAGAGAUCAACACAGCGUGGCAUAGUGGCUGGGGCUAGACUGCC [C8A A25U U34G], 0.12. Under GGCAGAGAUAAACACAGCGUGGCAAUGUGGCUGUGGCCAGACUGCC [C8A C10A A26U U38C] stands 0; under GGCAGAGAUUAACACAUCGUGGCAAAGUGGCUGUGGCUAGACUGCC [C8A C10U G17U], 0.1. GGCAGAGAUCAAAACAGCGUGGCAAAGUGGCUGUGGCUAGACUGCA [C8A C13A C46A]: the self-cleavage came out at 0.2. The value for GGCAGAGAUCAAAACGGCGUGGCAAAGUGGCUGUAGAUAGACUGCC [C8A C13A A16G G35A C37A] was 0.14. Under GGCAGAGAUCAACACAGUGUGGCAAAGUGGCUGUGGCUAGACUGGA [C8A C18U C45G C46A] stands 0.09. The value for GGCAGAGAUCAACAAAGCGCGGCAAAGUGGCUUUGACUAGACUGCC [C8A C15A U20C G33U G36A] was 0.27; that for GGCAGAGAUCAACACAGCGUGGCAGAGUGGCUGUGCCUAGACUGCC [C8A A25G G36C] was 0.44; that for GGCAGAGAUCAACACAGCGUGGCAAUGGGGCUGCGGCUAGACUGCC [C8A A26U U28G U34C] was 0.01. With GGCAGAGAUAAACCCAGCAUGGCAAAGUGGAUGUGGCUAGACUGCC [C8A C10A A14C G19A C31A], the self-cleavage worked out at 0.02.

Consider GGCAGAGAUCAACAUAGCGUGGCAAAGUGGCUGUGGCUAGGCUGCC [C8A C15U A41G], for which the self-cleavage was determined as 0.38.

Turning to GGCAGAGAUCAAUACAGCGUGGCAAAGUGGCUGUGGUUAGACUGCC [C8A C13U C37U], the self-cleavage came out at 0.28.

As for GGCAGAGAUCAACACAGCGUGGCAAUAUGGCUGUGGCUAGGCUGCC [C8A A26U G27A A41G], the self-cleavage was 0.16. The value for GGCAGAGAUCAACACAGCGUGGCAAUGUGGCCUUGGCUAUACUGCC [C8A A26U U32C G33U G40U] was 0.14. The value for GGCAGAGAUCAACACAGCGUGGCAGAGUGGCUGUGGCCAGACAGCC [C8A A25G U38C U43A] was 0.26. The value for GGCAGAGAUCAACACUGCGUGGCAAAGUGGCUGCGGCUAGACUGCC [C8A A16U U34C] was 0.08; that for GGCAGAGAUAAACACAGCGUGGCAAAGUGUCUGUGUCUAGACUGCC [C8A C10A G30U G36U] was 0.09. Consider GGCAGAGAUCAACAUAGCGUGGCAAAGUUGCUGUGGCUAGACUGCC [C8A C15U G29U], for which the self-cleavage stood at 2.62. The value for GGCAGAGAUCAACACAGCGUGGAAAAGUGGCUGUGGCUUGACUGCC [C8A C23A A39U] was 0.06; that for GGCAGAGAUCAACACAGCGUGGAAUAGUGGCUGUGGCUAGACUGCC [C8A C23A A25U] was 0.06.

As for GGCAGAGAUCAACACAGUGUGGCGAAGUGGCUGUUGCUAGACUGCC [C8A C18U A24G G35U], the self-cleavage is 0.08. The value for GGCAGAGAUCAACACAGCGUGGCAAUGGGGCGGUGGCUAGACUGCC [C8A A26U U28G U32G] was 0.06; that for GGCAGAGAUCAAUACAGCUGGGCAAAGUGGCUGUGCCUAGACUGCC [C8A C13U G19U U20G G36C] was 0.72. GGCAGAGAUAAACACAGCUUCGCAAAGUGGCUGUUGCUAGAAUGCC [C8A C10A G19U G21C G35U C42A]: the self-cleavage stood at 0.06. The value for GGCAGAGAUCAACACAGAGUGGCAAAGUGGCUGUGGCUGGACUGAC [C8A C18A A39G C45A] was 0.03; that for GGCAGAGAUUAACACAGCGUGGCAAAGUGGCUGUGGAUAGGCUGCA [C8A C10U C37A A41G C46A] was 0.01; that for GGCAGAGAUCAACACAGCGUGGCAAAGUGGCUGUGGCUUGAGUGCC [C8A A39U C42G] was 0.16.

Regarding GGCAGAGAUCAACACAGCGUGGCCAAGUGGCUGUGGUUAGACUGCC [C8A A24C C37U], the self-cleavage came to 0.27. Take GGCAGAGAUCAACAUAGCGUGACAAAAUGGCUGUGGCUAGACUGCC [C8A C15U G22A G27A]: the self-cleavage came out at 0.6. Under GGCAGAGAUCAAGACGUCGUGGCAAAGAGGCUAUGGCUAGACUGAC [C8A C13G A16G G17U U28A G33A C45A] stands 0.32. The value for GGCAGAGAUCAACACUGCGUGGCAAAGCCGCUGUGGCUAGCCUGCC [C8A A16U U28C G29C A41C] was 0.04. As to GGCAGAGAUCAACACAGCGUGGCAACGUGGCUGUGGCUAGACGGCC [C8A A26C U43G], the self-cleavage turned out to be 0.02. Under GGCAGAGAUCAACACAGAGUGGCCAAGUGGCUGUGGCUAGCCUGCC [C8A C18A A24C A41C] stands 0.03. The value for GGCAGAGAUAAACACAGCGUGGCAAAGUGCCUGUGGCUAGUCUGCC [C8A C10A G30C A41U] was 0.02; that for GGCAGAGAUGGACACAGCGAGGCAUAGCGGCUGUGGCUAGCCAGCC [C8A C10G A11G U20A A25U U28C A41C U43A] was 0. GGCAGAGAUCAACACAGUGUUGCAAAGUGGCUGUGGCUAGACUGCC [C8A C18U G21U]: the self-cleavage was found to be 0.3. The value for GGCAGAGAUCAACAAAGCGUAGCAAAGUGGCUGUGGCUAGACUGCC [C8A C15A G21A] was 0.56. On to GGCAGAGAUCAAAACAGCGUGGCAAAGUGGCUGUGUCUAGUCUGCG [C8A C13A G36U A41U C46G], for which the self-cleavage amounted to 0.08. In the case of GGCAGAGAUAAACACAGCGUGGCAAAGUGGCUGUGGCUAGACUGUC [C8A C10A C45U], the self-cleavage stood at 0. The value for GGCAGAGAUCAACACAGCGUGGCAAGGUGGCUGUGGCUAAAUUGCC [C8A A26G G40A C42U] was 0.1; that for GGCAGAGAUCAAUACAACGUGGCAUGGUGGCUGUGGCAAGACUGCC [C8A C13U G17A A25U A26G U38A] was 0.23; that for GGCAGAGAUCAAUAUAGCGUCGCAAAGUGGCUGUGGGUAGACAGCC [C8A C13U C15U G21C C37G U43A] was 0.22. GGCAGAGAUAAACACACCGUGGCCAAGUCGCUGUGACUAGACUGCC [C8A C10A G17C A24C G29C G36A]: the self-cleavage came to 0.02. The value for GGCAGAGAUCAAAACAGCAUGGCAAAGUGGCUGUGGUUAGACUGCC [C8A C13A G19A C37U] was 0.67; that for GGCAGAGAUCAACACAGGGUGGUAAAGUAGCAGUGGCUAGACUGCC [C8A C18G C23U G29A U32A] was 0.05. Under GGCAGAGAUCAACACAGUGUGGCAAAGAGGCAGUGGCUAGACUGCC [C8A C18U U28A U32A] stands 0.04.
